In EPA's CvTdb concentration-time database:
Values joined by “and” are separate entries in the source; they are usually repeats but may differ in a detail not shown here. Identical values can stand only once. The source gives many values for each of these; only a part stands here.

Columns and labels:
Rat [1] = test: concentration in plasma after dosing; conditions: 2 min; dosed: 2-Methyltetrahydrofuran; 10 mg/kg; iv; Female; F344
Rat [2] = test: concentration in plasma after dosing; conditions: 1.5 h; dosed: 2-Methyltetrahydrofuran; 10 mg/kg; iv; Female; F344
Rat [3] = test: concentration in plasma after dosing; conditions: 8 h; dosed: 2-Methyltetrahydrofuran; 400 mg/kg; oral; Male; F344
Rat [4] = test: concentration in brain after dosing; conditions: 1 h; dosed: 2-Methyltetrahydrofuran; 30 mg/kg; oral; Female; F344
Rat [5] = test: concentration in brain after dosing; conditions: 4 h; dosed: 2-Methyltetrahydrofuran; 100 mg/kg; oral; Male; Harlan Sprague Dawley
Rat [6] = test: concentration in plasma after dosing; conditions: 0.75 h; dosed: 2-Methyltetrahydrofuran; 10 mg/kg; oral; Female; F344
Rat [7] = test: concentration in plasma after dosing; conditions: 40 min; dosed: Bromochloroacetic acid; 10 mg/kg; iv; Male; F344
Rat [8] = test: concentration in plasma after dosing; conditions: dosed: Bromochloroacetic acid, 80 mg/kg, iv, Female, Harlan Sprague-Dawley
Rat [9] = test: concentration in plasma after dosing; conditions: dosed: Bromochloroacetic acid, 100 mg/kg, oral, Male, F344
Rat [10] = test: concentration in plasma after dosing; conditions: dosed: Fluorotelomer alcohol 8+2, 160 mg/kg, oral, Female, Harlan Sprague Dawley
Rat [11] = test: concentration in plasma after dosing; conditions: dosed: Fluorotelomer alcohol 8+2, 48 mg/kg, oral, Male, Harlan Sprague Dawley
Rat [12] = test: concentration in plasma after dosing; conditions: dosed: Formamide, 300 mg/kg, oral, Female, Harlan Sprague Dawley
Rat [13] = test: concentration in plasma after dosing; conditions: dosed: Formamide, 600 mg/kg, oral, Male, F344
Rat [14] = test: concentration in plasma after dosing; conditions: dosed: Pyridine, 5 mg/kg, iv, Female, F344
Rat [15] = test: concentration in plasma after dosing; conditions: 2 h; dosed: Pyridine; 200 mg/kg; oral; Female; Harlan Sprague Dawley
Rat [16] = test: concentration in plasma after dosing; conditions: 2 h; dosed: Pyridine; 10 mg/kg; oral; Male; F344
mouse = test: concentration in blood after dosing; negative times count back from the end of exposure; conditions: dosed: tert-amyl methyl ether, inhalation, duration: 6 hr, CD-1 (Charles River)
Procedure, shortened: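 Concentration-versus-time or amount-versus-time points were compiled from published in vivo toxicokinetic studies and from two structured collections. The studies were found by PubMed searching, classifier screening and manual review. Points were mostly digitised from plot screenshots with WebPlotDigitizer, otherwise copied from tables, and kept in the reported units. Dose, route, subject details and medium were curated by hand from each paper, and sampling and analytical methods follow each source and were often unreported.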

CC1CCCO1 (stereo not given) [2-Methyltetrahydrofuran]
Conditions	concentration in brain [µg/g]	concentration in plasma [µg/mL]
Rat [1]	–	19
Rat [2]	–	0.658
Rat [3]	–	70.5
Rat [4]	7.54	–
Rat [5]	8.89	–
Rat [6]	–	1.36

O=C(O)C(Cl)Br (stereo not given) [Bromochloroacetic acid]
Conditions	concentration in plasma [µg/mL]
Rat [7]	0.126

concentration in plasma [µg/mL]
Conditions	0.25 h	2 h	3 h	6 h
Rat [8]	–	3.65	0.919	–
Rat [9]	14.2	–	–	2.81

OCCC(F)(F)C(F)(F)C(F)(F)C(F)(F)C(F)(F)C(F)(F)C(F)(F)C(F)(F)F [Fluorotelomer alcohol 8+2]
concentration in plasma [ng/mL]
Conditions	Rat [10]	Rat [11]
0.75 h	1940	1040
12 h	703	85.3

NC=O [Formamide]
concentration in plasma [µg/mL]
Conditions	1.5 h	8 h	12 h	30 h
Rat [12]	281	–	–	84.7
Rat [13]	–	683	654	–

c1ccncc1 [Pyridine]
Rat [14]
Conditions	concentration in plasma [µg/mL]
0.25 h	3.29
6 h	1.84

Conditions	concentration in plasma [µg/mL]
Rat [15]	84
Rat [16]	0.646

CCC(C)(C)O [tertiary amyl alcohol]
mouse
Conditions	concentration in blood
0.1308 h, 2500 ppm, female	204 µg/mL
0.1313 h, 2500 ppm, female	201 µg/mL
0.1316 h, 2500 ppm, female	199 µg/mL
0.2591 h, 2500 ppm, female	192 µg/mL
0.2603 h, 2500 ppm, female	185 µg/mL
0.2715 h, 100 ppm, male	0.614 µg/mL
0.2886 h, 2500 ppm, female	206 µg/mL
0.295 h, 100 ppm, male	0.741 µg/mL
0.2966 h, 100 ppm, male	0.955 µg/mL
0.2981 h, 100 ppm, male	1.16 µg/mL
0.4487 h, 100 ppm, male	0.201 µg/mL
0.4517 h, 100 ppm, male	0.595 µg/mL
0.5742 h, 2500 ppm, female	199 µg/mL
0.6349 h, 100 ppm, female	0.278 µg/mL
0.6405 h, 2500 ppm, female	179 µg/mL
0.6424 h, 2500 ppm, female	167 µg/mL
0.6782 h, 100 ppm, female	0.554 µg/mL
0.9478 h, 500 ppm, female	20.8 µg/mL
0.9588 h, 2500 ppm, female	164 µg/mL
0.9668 h, 100 ppm, male	0.149 µg/mL
0.9781 h, 500 ppm, female	17 µg/mL and 18.5 µg/mL
0.9818 h, 100 ppm, female	0.335 µg/mL and 0.287 µg/mL
0.9884 h, 100 ppm, male	0.025 µg/mL
0.9893 h, 2500 ppm, female	172 µg/mL
0.9962 h, 2500 ppm, female	128 µg/mL
1.003 h, 100 ppm, female	0.125 µg/mL
1.867 h, 100 ppm, male	0.00241 µg/mL
1.892 h, 100 ppm, female	0.0483 µg/mL
2.106 h, 2500 ppm, female	102 µg/mL
2.107 h, 2500 ppm, female	101 µg/mL
2.108 h, 2500 ppm, female	91.4 µg/mL
2.111 h, 2500 ppm, female	74.1 µg/mL
3.964 h, 100 ppm, male	0.0021 µg/mL
4.082 h, 100 ppm, female	0.0362 µg/mL
4.14 h, 2500 ppm, female	34.8 µg/mL
4.145 h, 2500 ppm, female	2.36 µg/mL
4.164 h, 500 ppm, female	0.122 µg/mL
4.177 h, 2500 ppm, female	1.09 µg/mL
9.983 h, 100 ppm, male	0.00869 µg/mL
9.989 h, 500 ppm, female	0.38 µg/mL
10.06 h, 2500 ppm, female	0.995 µg/mL
10.24 h, 100 ppm, female	0.0578 µg/mL
17.88 h, 500 ppm, female	0.214 µg/mL
18.11 h, 2500 ppm, female	1.28 µg/mL
18.2 h, 100 ppm, female	0.0392 µg/mL
22 s, 100 ppm, female	7.52 µg/mL and 4.77 µg/mL and 3.12 µg/mL
58 min, 100 ppm, male	0.123 µg/mL
245 s, 500 ppm, female	53.6 µg/mL and 27.3 µg/mL
254 s, 2500 ppm, female	185 µg/mL
354 s, 500 ppm, female	26.8 µg/mL and 58.3 µg/mL

mouse, during exposure
Conditions	concentration in blood
-216 s, 100 ppm, male	1.5 µg/mL
-212 s, 100 ppm, male	1.66 µg/mL
-137 s, 100 ppm, male	1.42 µg/mL
-136 s, 100 ppm, male	1.45 µg/mL
-56 s, 100 ppm, female	1.92 µg/mL
-6 h, 100 ppm, female	0.0192 µg/mL
-5.909 h, 500 ppm, female	0.815 µg/mL
-5.843 h, 2500 ppm, female	5.9 µg/mL
-5.805 h, 100 ppm, female	0.238 µg/mL and 0.39 µg/mL
-5.781 h, 2500 ppm, female	17.3 µg/mL and 14.8 µg/mL
-5.78 h, 2500 ppm, female	8.86 µg/mL
-5.757 h, 500 ppm, female	5.4 µg/mL and 4.68 µg/mL and 8.35 µg/mL
-5.727 h, 500 ppm, female	4.18 µg/mL and 2.75 µg/mL and 1.83 µg/mL
-5.696 h, 100 ppm, female	0.562 µg/mL and 0.647 µg/mL
-5.575 h, 500 ppm, female	9.47 µg/mL
-5.566 h, 100 ppm, female	0.781 µg/mL
-5.545 h, 500 ppm, female	11.5 µg/mL
-5.523 h, 100 ppm, female	0.933 µg/mL
-5.404 h, 2500 ppm, female	25.7 µg/mL
-5.213 h, 2500 ppm, female	17.3 µg/mL
-5.15 h, 500 ppm, female	8.65 µg/mL
-5.068 h, 100 ppm, female	1.12 µg/mL
-5.059 h, 500 ppm, female	9.67 µg/mL
-5.046 h, 100 ppm, female	0.951 µg/mL and 1.08 µg/mL
-5.029 h, 500 ppm, female	16.7 µg/mL and 21.4 µg/mL and 18.5 µg/mL
-4.959 h, 100 ppm, female	1.29 µg/mL
-4.902 h, 2500 ppm, female	54.8 µg/mL
-4.874 h, 2500 ppm, female	74.2 µg/mL
-4.871 h, 2500 ppm, female	58.2 µg/mL
-3.998 h, 500 ppm, female	30.3 µg/mL and 33 µg/mL
-3.967 h, 500 ppm, female	25.7 µg/mL and 32.7 µg/mL
-3.962 h, 100 ppm, female	1.01 µg/mL
-3.962 h, 2500 ppm, female	103 µg/mL
-3.96 h, 2500 ppm, female	91.5 µg/mL
-3.957 h, 2500 ppm, female	71.7 µg/mL
-3.94 h, 100 ppm, female	2.15 µg/mL and 1.91 µg/mL
-2.025 h, 500 ppm, female	44.3 µg/mL and 48.9 µg/mL
-1.943 h, 100 ppm, male	2.85 µg/mL
-1.942 h, 2500 ppm, female	118 µg/mL
-1.919 h, 2500 ppm, female	177 µg/mL
-1.916 h, 2500 ppm, female	157 µg/mL
-1.915 h, 2500 ppm, female	152 µg/mL
